Experimental data as given in US20240417403A1, “CRYSTALLINE FORMS OF QUINAZOLINE DERIVATIVES, PREPARATION, COMPOSITION AND USE THEREOF” (Hoffmann-La Roche Inc., priority 2021, published 2024).

Assay: TGA and DSC/mDSC thermal analysis (characterization of forms)
Assay type: physicochemical
Conditions: for DSC, middle temperature (starred values): amorphous fumarate, *middle temperature of thermogravimetry
Description: In salt screening and evaluation and in polymorph study, TGA was performed using a TA Q500, TA Q5000 or Discovery 5500 TGA from TA Instruments. DSC or mDSC was performed using a TA Q200/Q2000 or Discovery 2500 DSC from TA Instruments.

[1] = fumarate forms, first DSC endotherm peak
[2] = fumarate forms, second DSC endotherm peak

SMILES	DSC endotherm (° C., peak) [1]	DSC endotherm (° C., peak) [2]	DSC, middle temperature (starred values) (first thermal event)	DSC, middle temperature (starred values) (second thermal event)	DSC endotherm (° C., peak) (crystalline salts, first DSC endotherm peak)	DSC endotherm (° C., peak) (crystalline salts, second DSC endotherm peak)
COc1ccc2ncnc(Nc3ccc(Oc4cc5ncnn5cn4)c(C)c3)c2c1O[C@@H]1CCN(C)CC1(F)F [Fumarate Type E, (R)-N-(4-([1,2,4]triazolo[1,5-c]pyrimidin-7-yloxy)-3-methylphenyl)-5-((3,3-difluoro-1-methylpiperidin-4-yl)oxy)-6-methoxyquinazolin-4-amine]	134.5 °C	166.0 °C				
COc1ccc2ncnc(Nc3ccc(Oc4cc5ncnn5cn4)c(C)c3)c2c1O[C@@H]1CCN(C)CC1(F)F [Amorphous Fumarate, (R)-N-(4-([1,2,4]triazolo[1,5-c]pyrimidin-7-yloxy)-3-methylphenyl)-5-((3,3-difluoro-1-methylpiperidin-4-yl)oxy)-6-methoxyquinazolin-4-amine]			79.9 °C	107.5 °C		
COc1ccc2ncnc(Nc3ccc(Oc4cc5ncnn5cn4)c(C)c3)c2c1O[C@@H]1CCN(C)CC1(F)F [Fumarate Type B, (R)-N-(4-([1,2,4]triazolo[1,5-c]pyrimidin-7-yloxy)-3-methylphenyl)-5-((3,3-difluoro-1-methylpiperidin-4-yl)oxy)-6-methoxyquinazolin-4-amine]	91.3 °C	166.3 °C			91.3 °C	166.3 °C

Counter-ions that a name gives are not always drawn. Some values that stand alone complete this part of the results.
